# According to publication PMC4336329 (PLoS ONE, 2015):
# The campaign covered roughly 310,000 compounds. About 2,200 (0.71%) showed an effect of 50% or more. The effect is printed as a negative number. Some of the results follow.
# Target: human ether-à-go-go-related gene (hERG) potassium channel (human, UniProt Q12809)
# Assay: primary screen, population patch clamp on CHO cells stably expressing hERG
# Sequence of human ether-à-go-go-related gene (hERG) potassium channel (Q12809 whole entry, looked up): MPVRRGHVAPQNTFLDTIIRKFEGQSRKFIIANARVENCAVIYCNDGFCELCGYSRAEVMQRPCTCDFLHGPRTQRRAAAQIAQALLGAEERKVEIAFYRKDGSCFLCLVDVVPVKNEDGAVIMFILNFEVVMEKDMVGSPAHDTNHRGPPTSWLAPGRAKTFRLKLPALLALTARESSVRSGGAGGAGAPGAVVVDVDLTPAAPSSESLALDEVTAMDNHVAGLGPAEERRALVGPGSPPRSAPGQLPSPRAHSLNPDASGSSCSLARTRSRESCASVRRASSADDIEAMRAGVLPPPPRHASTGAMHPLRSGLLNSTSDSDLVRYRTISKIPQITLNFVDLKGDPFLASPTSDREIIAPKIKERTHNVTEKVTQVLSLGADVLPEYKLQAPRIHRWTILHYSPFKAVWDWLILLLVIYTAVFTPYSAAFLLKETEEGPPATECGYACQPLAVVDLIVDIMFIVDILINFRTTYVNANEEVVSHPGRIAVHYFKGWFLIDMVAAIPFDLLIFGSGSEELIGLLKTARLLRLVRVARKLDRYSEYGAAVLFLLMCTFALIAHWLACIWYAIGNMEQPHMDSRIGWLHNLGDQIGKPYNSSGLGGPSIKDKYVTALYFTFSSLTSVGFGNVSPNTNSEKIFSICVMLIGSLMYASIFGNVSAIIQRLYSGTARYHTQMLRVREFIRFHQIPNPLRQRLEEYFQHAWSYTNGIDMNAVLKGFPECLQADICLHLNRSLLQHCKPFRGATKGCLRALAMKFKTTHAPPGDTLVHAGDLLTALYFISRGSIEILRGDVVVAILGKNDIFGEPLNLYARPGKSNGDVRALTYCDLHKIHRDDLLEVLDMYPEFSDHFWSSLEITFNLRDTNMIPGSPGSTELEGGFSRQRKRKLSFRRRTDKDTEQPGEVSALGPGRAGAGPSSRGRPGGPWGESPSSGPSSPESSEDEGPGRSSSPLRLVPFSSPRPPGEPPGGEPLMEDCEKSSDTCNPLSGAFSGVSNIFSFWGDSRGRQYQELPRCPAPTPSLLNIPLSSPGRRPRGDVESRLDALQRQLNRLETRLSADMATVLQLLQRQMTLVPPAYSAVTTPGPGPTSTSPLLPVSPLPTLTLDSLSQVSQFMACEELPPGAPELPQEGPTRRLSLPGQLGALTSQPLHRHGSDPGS
row,SMILES,"hERG current change (%, negative = inhibition) at 1uM"
1,O=C(CSc1nnc(COc2ccc(F)cc2)o1)N1CCCCC1,16.1%
2,CCCCc1ccc(NC(=O)OC)cc1,4.71%
3,CC(=O)Nc1cccc(NC(=O)CN2c3cccc4cccc(c34)S2(=O)=O)c1,4.14%
4,COc1ccc2c(c1)CCCN2C(N)=Nc1ccc(Cl)cc1,-9.55%
5,CSCCC(NC(=O)c1ccc(Cl)cc1Cl)C(=O)NNC(=O)c1csc(N2CCOCC2)n1 (stereo not shown),-9.64%
6,CC1CCCCN1CCCn1c(=S)[nH]c2ccccc2c1=O (stereo not shown),-9.91%
7,CN(C)CCCNc1c2ccccc2nc2ccccc12,3.34%
8,Nc1nnc(SCc2ccc(F)cc2)n1-c1ccccc1,5.65%
9,FC(F)(F)c1cccc(CNc2ncccc2-c2nc3cc(Cl)ccc3o2)c1,9.75%
10,CC1CCC(NC(=O)CNC(=O)c2cccs2)CC1 (stereo not shown),5.84%
11,Cc1cc(C)n(CCCNC(=O)C2CC(=O)N(Cc3ccccc3)C2)n1 (stereo not shown),10.6%
12,COc1cc(C(=O)NCc2ncccc2C)ccc1OC1CCN(C(C)=O)CC1,8.75%
13,COc1ccc(OCCSc2nnc3sc4ccccc4n23)cc1,5.24%
14,COCCN1C(=O)C(=O)/C(=C(/O)c2cccc(OC)c2)C1c1ccncc1 (stereo not shown),19.8%
15,Cc1ccc(SCC(=O)NN2C(=O)c3ccccc3C2=O)cc1,3.38%
16,CCOc1c(Cl)cc(C2NC(=O)NC(C)=C2C(=O)NCc2ccccc2)cc1OC (stereo not shown),-6.99%
17,CSc1ccccc1NC(=O)c1cnc2sc(C)cn2c1=O,2.93%
18,O=C(CCNS(=O)(=O)c1cccs1)N1CCCCCC1,13.9%
19,COCn1c(-c2ccc(OC)c(OC)c2)nc2ccccc21,4.61%
20,CCCn1c(SCC(=O)c2cc(OC)ccc2OC)nnc1-c1ccco1,3.46%

row,SMILES,"hERG current change (%, negative = inhibition) at 1uM"
1,CCc1nc2ccccc2c2nc3ccccc3n12,12.7%
2,CCc1ccccc1OCCCCN1CCCC1.O=C(O)C(=O)O,-2.73%
3,O=C(/C=C\c1ccc2c(c1)OCO2)CC1(O)C(=O)Nc2ccccc21 (stereo not shown),2.9%
4,O=C(CN1C(=O)S/C(=C\C=C\c2ccccc2)C1=O)Nc1ccccc1C(=O)O,6.86%
5,Cl.OC(CN1CCCCCC1)CN(c1ccccc1)c1ccccc1 (stereo not shown),-24.1%
6,CCOC(=O)Cc1cc(=O)n2[nH]c(-c3ccccc3)cc2n1,2.92%
7,CCOc1ccc(C(=O)COC(=O)C2COc3ccccc3O2)cc1 (stereo not shown),5.82%
8,N#CCCN(C(=O)COC(=O)CCNS(=O)(=O)c1ccccc1)c1ccccc1,9.81%
9,C=CCN1C(=O)NC(=O)C(CCc2ccncc2)(CCc2ccncc2)C1=O,-12.3%
10,CCc1nc2ccccc2n1CCC(C)C,5.08%
11,COCC(=O)NCc1nc2ccccc2[nH]1,0.105%
12,Cc1cc(NC(=O)C(C)SCC(=O)N(C)CC(=O)Nc2ccc(Br)cc2C)no1 (stereo not shown),10.5%
13,CC(C)c1cc(C(C)C)n2nc(N)nc2n1,2.59%
14,COc1ccc(-n2ncc(N(C)n3cccc3)c(Cl)c2=O)cc1,9.05%
15,O=C(NCc1ccncc1)C(=O)NCC(c1ccco1)N1CCN(c2ccccc2)CC1 (stereo not shown),3.03%
16,COc1ccccc1N1CC(C)(C)C(=O)N(C(=O)c2c(F)cccc2Cl)C1=S,27.1%
17,CCCCNC(=O)C(C#N)c1nc2ccccc2nc1N1CCN(c2ccccc2F)CC1 (stereo not shown),8.32%
18,CC(Sc1nnc(-c2ccco2)n1C)C(=O)N1C(C)CCCC1C (stereo not shown),9.38%
19,Cn1ncc2c(Sc3ccc(Cl)cc3)ncnc21,13.6%
20,COc1ccc(NS(=O)(=O)c2csc(C(=O)N3CCCC3)c2)cc1,6.63%

row,SMILES,"hERG current change (%, negative = inhibition) at 1uM"
1,Cl.Fc1ccc(-c2csc(Nc3ccccn3)n2)c(F)c1,21.6%
2,O=C(OCC(=O)N1CCc2ccccc21)[C@@H]1CCCN1S(=O)(=O)c1ccccc1F,-0.207%
3,CC(C)CCNC(=O)CN(Cc1ccccc1)C(=O)CCC(=O)Nc1nccs1,4.61%
4,Cc1ccc(NC(=O)COC(=O)c2ccccc2-c2nc3ccccc3s2)c(C)c1,18.9%
5,Clc1ccc(SCc2cc(-c3ccc(Cl)cc3)on2)cc1,6.59%
6,Cc1c(C(=O)OCC(=O)N2CCCC(C)C2)oc2ccccc12 (stereo not shown),13.8%
7,CC1CCN(c2ccccc2NC(=S)NC(=O)C(C)(C)C)CC1,12.3%
8,COC(=O)C1=C(C)OC(N)=C(C#N)C1c1cc(OC)c(OCC(N)=O)cc1Cl (stereo not shown),-4.39%
9,O=C(NCC1(N2CCOCC2)CCCCC1)c1ccc(S(=O)(=O)Nc2ccccc2F)cc1,9.54%
10,O=C(NC(C(=O)c1ccccc1)n1c(=O)cc[nH]c1=S)c1ccccc1 (stereo not shown),6.94%
11,O=C(N/C(=C/c1cccc([N+](=O)[O-])c1)C(=O)N1CCOCC1)c1ccc(Br)cc1,-19.6%
12,COc1cc(OC)c(NC(=O)CN(C)S(=O)(=O)c2ccc3[nH]c(=O)oc3c2)cc1Cl,2.68%
13,CC1CCCC(C)N1CCCNC(=O)C(=O)Nc1ccc2nc3n(c(=O)c2c1)CCCCC3 (stereo not shown),10.1%
14,CCC(C)N1C(=O)CCC1C(=O)N1CCN(c2ccccc2F)CC1 (stereo not shown),17%
15,O=c1[nH]nc(Cc2ccccn2)c2ccccc12,-4.97%
16,COc1cc(CN=Cc2c(O)n(C(C)(C)C)c(=O)[nH]c2=O)cc(OC)c1,9.75%
17,CCOC(=O)c1ccc(N2C(=O)c3n[nH]c(C)c3C2c2ccco2)cc1 (stereo not shown),-2.9%
18,CCC(=O)Nc1ccc(/C(C)=N/NC(=O)c2c(Br)c(C)nn2C)cc1,13.3%
